# Assay results as given in PMC6919601, “Identification of Plasmodium dipeptidyl aminopeptidase allosteric inhibitors by high throughput screening” (PLoS ONE, 2019).
# About 230 (0.21%) of roughly 110,000 compounds showed an effect of 50% or more. Some of the results follow.
# Molecular target: DPAP1 (Plasmodium falciparum, UniProt Q8IIJ9)
# Assay: primary screen, percent inhibition; read by cleavage of a fluorogenic dipeptide substrate; higher = more effect of the substance
# Set-up: species or system P. falciparum D10 trophozoite lysates; single well
# 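Further: 30 min substrate incubation versus DMSO and 10 µM JCP410 controls.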
# Chain of DPAP1 (Q8IIJ9 whole entry, looked up): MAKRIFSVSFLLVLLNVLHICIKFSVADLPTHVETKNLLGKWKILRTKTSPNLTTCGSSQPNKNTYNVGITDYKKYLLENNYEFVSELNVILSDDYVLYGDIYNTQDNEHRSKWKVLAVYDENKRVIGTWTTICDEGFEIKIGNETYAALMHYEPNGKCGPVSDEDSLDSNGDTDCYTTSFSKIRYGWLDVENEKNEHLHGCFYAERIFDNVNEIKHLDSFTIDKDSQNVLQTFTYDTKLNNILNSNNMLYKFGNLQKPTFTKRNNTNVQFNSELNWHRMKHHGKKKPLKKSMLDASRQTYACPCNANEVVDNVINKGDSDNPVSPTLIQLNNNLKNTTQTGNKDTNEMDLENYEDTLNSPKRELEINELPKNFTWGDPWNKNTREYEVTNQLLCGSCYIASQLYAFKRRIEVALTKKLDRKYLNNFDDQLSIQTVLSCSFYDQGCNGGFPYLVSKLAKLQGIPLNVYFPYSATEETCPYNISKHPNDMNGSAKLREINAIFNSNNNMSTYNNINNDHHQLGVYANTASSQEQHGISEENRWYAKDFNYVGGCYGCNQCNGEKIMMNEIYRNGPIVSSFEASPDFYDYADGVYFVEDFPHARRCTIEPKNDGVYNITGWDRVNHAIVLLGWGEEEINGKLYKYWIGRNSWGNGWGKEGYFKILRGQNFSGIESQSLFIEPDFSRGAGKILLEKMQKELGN
row,Structure (SMILES),% Inhibition @ 10 uM
1,CCn1c(C(=O)N2CCC(C(=O)NCCCN3CCOCC3)CC2)cc2sccc21,-1.53%
2,Cc1ccc(C)c(Cn2c3ccccc3c3cnn(CC(=O)NCCN4CCCCC4C)c(=O)c32)c1 (centres unmarked),1.8%
3,O=CNc1c(O)c2ccccc2oc1=O,3.99%
4,O=[N+]([O-])c1ccc(O)c(CN2CCCCCCC2)c1,-1.64%
5,CNC(=O)/C=C1\NC(C)(C)Cc2c1ccc1ccccc21,3.47%
6,CCCn1c(CN2CCC(C)CC2)nc2c1c(=O)n(C)c(=O)n2C,-4.14%
7,Cc1ccc(CNc2ccc(CNc3nc[nH]n3)cc2)cc1,1.84%
8,N#CCc1ccc(NC(=O)c2cccs2)cc1,-0.303%
9,Cc1ccc(C(=O)C2=C(O)C(=O)N(CCOCCO)C2c2cccs2)cc1 (centres unmarked),-6.75%
10,CCOC(=O)N1CCN(C(=O)c2cc3c(C)nc4ccccc4c3o2)CC1,-0.0115%
11,CCCCN(CC)CCCNC(=O)C1c2ccccc2C(=O)N(C2CCCC2)C1c1cccs1 (centres unmarked),-4.99%
12,O=C(Nc1ccccc1Cl)c1ccc([N+](=O)[O-])cc1Cl,-0.546%
13,CCOC(=O)c1cnc2sc(C(=O)OCC)c(C)c2c1O,0.98%
14,COCc1cc(C)nc(SCc2ccc(Br)cc2)c1C#N,4.67%
15,Cc1c(Br)c(C(=O)Nc2cnn(Cc3c(F)cccc3Cl)c2)nn1C,3.8%
16,Cc1cc(C)n(CC2CC(=O)N(c3ccc(Br)cc3)C2=O)n1 (centres unmarked),-0.473%
17,CCNc1nc(NCC)nc(Nc2nc(C)c(C(=O)OCC)s2)n1,8.16%
18,CC1CCCC(NC(=O)CN(C)S(=O)(=O)c2c[nH]cn2)C1C (centres unmarked),-0.0309%
19,C=CCNC(=O)CN(c1ccc(OC)cc1OC)S(C)(=O)=O,1.52%
20,CSc1ccc(C2c3c(-c4ccccc4O)n[nH]c3C(=O)N2CC2CCCO2)cc1 (centres unmarked),-4.95%
21,O=C(CCn1c(SCc2ccc(F)cc2)nc2c(sc3ccccc32)c1=O)NCC1CCCO1 (centres unmarked),0.66%
22,COc1cc2c(cc1OC)CC(C)(C)N=C2,-1.22%
23,Cc1nc2nc(C)c(NS(=O)(=O)c3ccc(F)c(C)c3)c(O)n2n1,1.49%
24,Nc1nc(-c2ccc(Cl)cc2Cl)cs1,-3.38%
25,CC(C)(C)c1sc(N)nc1-c1ccccc1,-2.15%

row,Structure (SMILES),% Inhibition @ 10 uM
1,Cc1cc(O)c(C2=Nc3cc(C(F)(F)F)ccc3SC(c3cccs3)C2)c(=O)o1 (centres unmarked),-0.693%
2,COc1ccc(C2CC(C(F)(F)F)n3ncc(C(=O)NCc4ccccc4)c3N2)cc1 (centres unmarked),2.79%
3,CC1CCc2c(sc3ncn(Cc4ccc(Cl)cc4)c(=O)c23)C1 (centres unmarked),-16.1%
4,Clc1ccccc1CNc1nc2ccccc2c2nc(-c3ccncc3)nn12,-0.692%
5,CCSc1oc(-c2ccccc2)nc1S(=O)(=O)c1ccc(C)cc1,-2.74%
6,COc1ccccc1NC(=O)C1=C(C)N=C2CC(C)(C)CC(O)=C2C1c1ccc(C)cc1 (centres unmarked),1.35%
7,CCOC(=O)C1=CN(Cc2ccc(OC)c(OC)c2)C=C(C(=O)OCC)C1c1ccc(OC)c(O)c1,-5.05%
8,Cc1ccc2[nH]c(C)c(/C=C3/C(=N)N4C(=NC3=O)SN=C4S(C)(=O)=O)c2c1,1.85%
9,O=C(/C=C/c1ccccc1)C1=C(O)C(=O)OC12C(=O)c1ccccc1C2=O,1.97%
10,O=C1c2oc3ccccc3c(=O)c2C(c2ccc(OCc3ccccc3)cc2)N1c1nccs1 (centres unmarked),-0.828%
11,CCO/C(O)=C1/C(C)=Nc2ncnn2C1c1ccc(OCc2ccccc2)cc1 (centres unmarked),-3.98%
12,COc1ccc(C2CC(c3ccccc3O)=NN2)cc1 (centres unmarked),1.37%
13,COc1ccc(NC(=O)CN2C(=O)S/C(=C/c3ccc4c(c3)n(C)c(=O)n4C)C2=O)cc1,3.01%
14,Cc1ccsc1/C=C1\NC(=O)N(Cc2ccc(Cl)cc2)C1=O,-5.3%
15,Cn1c(=O)c2c(nc(SCc3ccccc3F)n2C)n(C)c1=O,-6.37%
16,CN(C)CCCNCC(O)Cn1c2ccc(Cl)cc2c2cc(Cl)ccc21 (centres unmarked),-6.95%
17,CCC(C(=O)N1CCN(c2ccc([N+](=O)[O-])cc2)CC1)c1ccccc1 (centres unmarked),1.13%
18,c1ccc2c(c1)ncn2Cc1nnc2sc(-c3ccc4c(c3)OCCO4)nn12,45%
19,COc1ccc(CN2CCN(c3ccc(Cl)cc3)CC2)cc1OC,6.18%
20,CCOC(=O)N1CCN(c2cc(C)nc3nc(-c4ccc(C(C)(C)C)cc4)nn23)CC1,5.54%
21,CC(C)C[C@H](NC(=O)c1ccc(CN2CCN(C)CC2)cc1)C(=O)NCC#N,-5.64%
22,COc1ccc(-c2nc(CS(=O)(=O)CC(=O)NCCc3cc(OC)ccc3OC)c(C)o2)cc1,3.19%
23,O=C(NC1CCCCCC1)C1CCCN1S(=O)(=O)c1ccc(Cl)cc1 (centres unmarked),4.11%
24,CN1CCN(C(=O)C2CCCN(c3ncnc4c3nc3n4CCCCC3)C2)CC1 (centres unmarked),4.83%
25,CC(Oc1cccc(Cl)c1)C(=O)Nc1sc2c(c1C(N)=O)CCCCC2 (centres unmarked),61.2%
